# The other results are listed elsewhere or left out.
# Test system: PF3D7_0420300 AP2 domain 1 (GST-tagged)
# Assay: gcPBM binding intensity (ln(normalized median fluorescence intensity)); higher = stronger DNA binding
# Procedure, shortened: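 After 1 h on an Agilent 4 × 180k array of primer-extended double-stranded 36-bp intergenic genomic probes and negative controls, bound GST-tagged P. falciparum DNA-binding domains were detected with Alexa488 anti-GST antibody and scanned at 488 nm. The domains had been expressed in E. coli, and binding took place in 1× PBS with 1% milk, 0.2 mg/ml BSA, 0.5% salmon testes DNA and 0.03% Triton X-100. Binding intensity is the highest Masliner-normalised natural-log median intensity across replicate spots of either probe orientation.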
row,Sequence,gcPBM binding intensity (ln)
1,ACGTATTTTTAAATATATGAATTATGTAACTTGTGA [CACACA_negctrl_site1446],9.05
2,TATACTATTTAAATGTGTACTAAAAGAATATATTAT [XGTACX_site5238],9.26
3,GAATATGTGATATTTTGTACATAAAAATAATATATA [XGTACX_site6398],9.14
4,AAAACATAAATACATACACACATAATATAGATTAAT [CACACA_site6205],9.99
5,TATATACAACGTTAAGCACACACAAAAAAAATTTAA [CACACA_site9013],9.73
6,CATATGTATATGACTACACACAAGGGTGTACCTATA [CACACA_site6670],9.48
7,TTAAAAATAAATTCATGTACATAATATATATATATA [XGTACX_site7908],9.11
8,TTGCATTTATTATACACACACAAAAAAATATTTATA [CACACA_site6252],9.6
9,TGTTCATTTTTAAAATGTACATATATGTTGTTCCAT [XGTACX_site8444],9.42
10,TTGACAGGAACGTTGGTGCACGTACTGTTTTTCTTT [GTGCAC_site9389],9.28
11,TTTGGATAAAAAATATGTACACACATATAGATATCT [XGTACX_site5660],9.37
12,GTATAATATTTTAATGCACACACACTAATAAAAAAA [CACACA_site8939],9.8
13,AAGTATAAATAAAGGCGTACACATGTAAATTATATT [XGTACX_site126],9.78
14,TAATAGATGTTATGAAGTACTAAATATTAAATATAA [XGTACX_site5717],9.19
15,TTTATTTTAAATGGGTGTACTCATTCCTTATGGAAG [XGTACX_site1397],8.86
16,AAAATAATTCATGTTGGTAATAAGACTCGAGGTGAA [CACACA_negctrl_site1054],9.4
17,AGTAGTCTGGAGAAAAGTACATAGTATCTGATAACC [XGTACX_site2028],9.29
18,TATTATAATATATTTGTGCACATAATATCTCCGCTA [GTGCAC_site9799],9.18
19,AAAAAGATAAAATATACATGCATATATAATATACAT [TGCATGCA_site488],9.35
20,TGCTTATATATAAATTGTACTGAAAGAATAAAATAA [XGTACX_site4025],8.97
21,AAAAAAAAAAAATACACACACATATTTATTTATATA [CACACA_site7114],9.72
22,AAAAAAGGTAAAAAAAGTACAAAAAAAAAATTAAAA [XGTACX_site6993],9.31

row,Sequence,gcPBM binding intensity (ln)
1,CATTTATATATATACACACACACAAAAAAAAAAAAA [CACACA_site2645],9.98
2,ATTTAACTAAAGAAGGCACACGTGTTTAAAAAAAAA [CACACA_site5241],9.23
3,GACGTTATGATACACATACACACAGGGATAAAAAAT [CACACA_site2882],9.63
4,AATATTATATTTTATTGTACTAATAAAAATATATGC [XGTACX_site5435],9.02
5,TTTTTTTTTTTTTTTTGTACTTAAAAATTTATATAA [XGTACX_site7718],8.45
6,TATATATATATATATGCATGTACATATATTTGTTAT [TGCATGCA_site379],9.57
7,ATAATATGAAATATAACACACATATATAAAAACATT [CACACA_site866],9.72
8,TATTTTTTTTTTGGGTGTACCTTTTATATATATTGT [XGTACX_site5036],9.51
9,TATACACATTTTTATACACACTTGTTTTATAAAACG [CACACA_site6480],9.44
10,ACAAAACGAACATACGCATGTGTGTACATTAATATA [TGCATGCA_site922],9.69
11,TTATTTACATCAAGTACATGCAGTAAAAAAAAAAAA [TGCATGCA_site351],9.08
12,CACCAATTCCTATGCACACACATCTGCATATTATAT [CACACA_site5049],9.93
13,ATATAATATATGTATACACACATATTATATAATATT [CACACA_site3699],9.38
14,ATGAACAGTTCATGTTGTACAATCTCCATTTTTTAC [XGTACX_site3933],9.35
15,CAATATAAAAAACACACACACAAACATATATTTATA [CACACA_site3703],10.1
16,TATTTATATAAAAATACACACATGAATGGATATATA [CACACA_site6335],9.55
17,TGTCGGCTTAGATTAGTGCACTGAAAAATGAAGTAT [GTGCAC_site9919],9
18,AATATAGTTCAATATACACACCCCTTTATTCATTTT [CACACA_site3625],9.58
19,GTAACATACACATATACACACACACCGATATACATA [CACACA_site8278],10.2
20,ATTAATTAAGGCACATGTACAAAATATTTTTTATAA [XGTACX_site1964],9.02
21,TATACAATCTATATAACACACATATTTATATAAAAT [CACACA_site1797],9.46
22,AAAAAAATTAAACATGAAGAATAAGGAACAAAAAAA [CACACA_negctrl_site1607],9.62

row,Sequence,gcPBM binding intensity (ln)
1,TTTAATCATATGTTATATAATAAGCCCCCCCCCCAA [CACACA_negctrl_site486],10.4
2,ATTTAAGTAGTACATACACACACATATACAAAAAGA [CACACA_site9317],9.93
3,ATGGGACATATATATACACACATATATATATATATA [CACACA_site1202],9.46
4,TTTCGATTAAAAATTGTACAATATAAGGAGCACACA [GTGCAC_negctrl_site476],9.31
5,TAAAAAAAAAAATGAACATGCAACAATTGTGATGAA [TGCATGCA_site332],9.51
6,AACCACAGACATATAACACACATATACAATATATAT [CACACA_site5142],9.81
7,CTTTTTTTGACCTTAGTGCAAATAACTATATATTAT,9.14
8,ATGAAAATTATAAAGTGTACATATAGAAACATTTAC [XGTACX_site8047],9.47
9,ACTGTAACAATCATGGGTACAAATAAAATAATATCT [XGTACX_site99],9.42
10,TTTTGTCTTATATGTTGTACAACGTAAACAAAAAAA [XGTACX_site4412],8.84
11,AAAAGAATATATAATTGTACTTAAAATATAATTAAG [XGTACX_site4484],9.14
12,CATTTCGAAAAAAAATGTACTTATTATATTTATATA [XGTACX_site6752],8.94
13,TGTATATATTATAAAAGTACATAATATTCTTAGATA [XGTACX_site5623],9.05
14,TTATCTTACATAAATTATAACAATAATATGTGTATA [XGTACX_negctrl_site379],9.01
15,ACATCTCTTATATATTCACACACATATATATAATTA [CACACA_site8424],9.83
16,TTTTTTTTTTAATTCGCACACTGTCTTCATGCAATT [CACACA_site4882],9.27
17,TTAAAAAATTTTTAAGCACACACATAGATAATATAT [CACACA_site8440],9.58
18,GCACATCTATATGAAACACACATGGAAACATCTCTT [CACACA_site7793],9.44
19,GAAACTTCAAGAAATGCACACAATAAAATAAATAAA [CACACA_site1549],9.4
20,AGCATTAAAAATGGAATGGAATTAAGCTATATATTA [CACACA_negctrl_site1571],9.28
21,AGTATATATTATATATATATATATATATTATATATG [TGCATGCA_negctrl_site99],9.1
22,ATAGAATATTATATTACACACAGAATAATAAAAAAT [CACACA_site86],9.62

row,Sequence,gcPBM binding intensity (ln)
1,TAACATATCTTTAATACACACTTAAAAAAGTACTTA [CACACA_site4532],9.15
2,GGAAACACAATATATACACACATATATATATATATA [CACACA_site235],9.46
3,ACACTTAAATATTGTTGTACAAAATGATAAAATGTA [XGTACX_site4588],9.25
4,TTATATAACCCTCATGCATGCTAAGAAAAAAAAAAC [TGCATGCA_site936],9.3
5,ATTTATATTATAATATGTACACAAAAAAAATTAGGA [XGTACX_site565],9.24
6,TTGATGTATACAATGTAGATTATTTAATATTTCAAT [GTGCAC_negctrl_site203],9.01
7,TTTCATGTTTTAAAGTGTACATAAATATATTATATG [XGTACX_site3367],9.18
8,TTTTTAATAAAATGATTGATAATTATTAAATTAAAA [CACACA_negctrl_site488],8.45
9,TTGTGTTTGCGTAAATGTACGGAAAGACTTGAAGAC [XGTACX_site7235],9.39
10,TTGTTAGAGTATATTGAAAGGATAACCTTTTTTTAT [XGTACX_negctrl_site122],9.01
11,TATTTTAACTTCTCATGTACATATATTATGTCTATA [XGTACX_site249],9.42
12,TATCATAAACTTCCTTACTATACTTTTCTTATTCAT [CACACA_negctrl_site1341],9.36
13,CTTTGTAGTATATTAACACACAACTATTTATAATAT [CACACA_site3934],9.39
14,ATTTTTAAGCATATCAAAAAAAAAAAAAAAATTAAT [CACACA_negctrl_site980],9.1
15,TTACTAAAAATTATTAATAAATAATAATTATAAATT [GTGCAC_negctrl_site310],8.86
16,TAAAAAGGAAAACACACACACACATATATATATATA [CACACA_site3588],9.9
17,TTTCCAATTAGTTTTGCATGTTGAAAAAATGTTGGA [TGCATGCA_site1035],8.84
18,TTATTATTAAGACACACACACAAAAAAAAAAAAAAA [CACACA_site6805],9.73
19,TAGATACATACACGCACACACATATATAAATAAATA [CACACA_site6157],9.85
20,AAAAAAAACAGACACACACACATACACATACATACA [CACACA_site2857],10.2
21,TAATTATGTACTATTATACACACGTTTAATTGTAAA [CACACA_site206],9.29
22,TTACGTATGTATTATGTTGTATATGAAATTAAAAAA [GTGCAC_negctrl_site292],8.97
